Assay results published in the supplement of paper PMC8007513.
Structures can show the parent of a compound that is named as a salt. ± gives the standard error. Hit rate of the full screen: of about 1,300 compounds, about 75 (6%) showed an effect of 50% or more. The list shows a part of the results.

Test system: Trichoderma virens ATCC 9645
Experiment: growth yield (OD600) relative to untreated control; higher = less growth inhibition
Conditions: compound concentration: 100 uM
How it was run: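 For each 96-well plate, 100 μl aliquots were prepared with Trichoderma virens ATCC 9645 spores suspended at 15,000 spores ml^−1 in potato dextrose broth. The spores had been harvested from potato dextrose agar plates after 7 days. Library compounds were present at 100 μM final, some wells also receiving a biocide at 200 ng ml^−1, and plates were grown at 30 °C with OD600 read on a BioTek EL800 at 40 h and 72 h. Reported growth, relative to the control lacking both agents, is the mean of duplicate screens.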

Structure (SMILES): CN1CCC(=C2c3ccccc3C=Cc3ccccc32)CC1 [Cyproheptadine hydrochloride]
- growth yield (40 h): 94 ± 1.6%
- growth yield (72 h): 100 ± 1.1%

Structure (SMILES): CC(C)(C)NC[C@@H](O)COc1cccc2c1CCCC2=O [(+) -Levobunolol hydrochloride]
- growth yield (40 h): 100.2 ± 0.16%
- growth yield (72 h): 98.9 ± 0.1%

Structure (SMILES): CO[C@H]1/C=C/O[C@@]2(C)Oc3c(C)c(O)c4c(O)c(c(/C=N/N5CCN(C6CCCC6)CC5)c(O)c4c3C2=O)NC(=O)/C(C)=C\C=C\[C@H](C)[C@H](O)[C@@H](C)[C@@H](O)[C@@H](C)[C@H](OC(C)=O)[C@@H]1C [Rifapentine]
- growth yield (40 h): 84.5%
- growth yield (72 h): 94%

Structure (SMILES): N=C(N)NC(=N)NCCc1ccccc1 [Phenformin hydrochloride]
- growth yield (40 h): 96.9 ± 1.9%
- growth yield (72 h): 91.5 ± 2.7%

Structure (SMILES): NCCc1c[nH]cn1 [Histamine dihydrochloride]
- growth yield (40 h): 98.3 ± 3.3%
- growth yield (72 h): 98.5 ± 3%

Structure (SMILES): CCCOc1cc(N)ccc1C(=O)OCCN(CC)CC [Propoxycaine hydrochloride]
- growth yield (40 h): 110 ± 3.8%
- growth yield (72 h): 106 ± 4%

Structure (SMILES): OC(Cn1cncn1)(Cn1cncn1)c1ccc(F)cc1F [Fluconazole]
- growth yield (40 h): 55.1 ± 1.8%
- growth yield (72 h): 61.14 ± 0.52%

Structure (SMILES): CC[N+](C)(C)c1cccc(O)c1 [Edrophonium chloride]
- growth yield (40 h): 107 ± 5.9%
- growth yield (72 h): 112 ± 4.7%

Structure (SMILES): Cc1cn[nH]c1 [Fomepizole]
- growth yield (40 h): 101 ± 2.2%
- growth yield (72 h): 101 ± 1.8%

Structure (SMILES): CC[N+](C)(CC)CCOC(=O)C1c2ccccc2Oc2ccccc21 [Methantheline bromide]
- growth yield (40 h): 110 ± 1.8%
- growth yield (72 h): 108 ± 1.3%

Structure (SMILES): CCCCN(CCCC)CCCOC(=O)c1ccc(N)cc1 [Butacaine]
- growth yield (40 h): 95.5 ± 4.9%
- growth yield (72 h): 98.5 ± 4.1%

Structure (SMILES): COC(=O)Nc1nc2cc(C(=O)c3cccs3)ccc2[nH]1 [Nocodazole]
- growth yield (40 h): 91.3 ± 5.2%
- growth yield (72 h): 92.9 ± 2.9%

Structure (SMILES): Cc1ccc(C(=O)c2ccc(CC(=O)O)n2C)cc1 [Tolmetin sodium salt dihydrate]
- growth yield (40 h): 82.9 ± 2.5%
- growth yield (72 h): 80.3 ± 1.1%

Structure (SMILES): CC(=O)OCC(=O)[C@@]1(O)CC[C@H]2[C@@H]3CCC4=CC(=O)CC[C@]4(C)[C@@]3(F)[C@@H](O)C[C@@]21C [Fludrocortisone acetate]
- growth yield (40 h): 96.73 ± 0.79%
- growth yield (72 h): 101.3 ± 0.63%

Structure (SMILES): NS(=O)(=O)c1cc(C2(O)NC(=O)c3ccccc32)ccc1Cl (stereo not drawn) [Chlorthalidone]
- growth yield (40 h): 102 ± 3.6%
- growth yield (72 h): 105 ± 3.7%

Structure (SMILES): C=CC(N)CCC(=O)O (stereo not drawn) [Vigabatrin hydrochloride]
- growth yield (40 h): 101 ± 1.8%
- growth yield (72 h): 100 ± 1.1%

Structure (SMILES): Cc1ncc(C[n+]2csc(CCO)c2C)c(N)n1 [Thiamine hydrochloride]
- growth yield (40 h): 98 ± 0.16%
- growth yield (72 h): 95.75 ± 0.94%

Structure (SMILES): CC(C)c1c(C(=O)Nc2ccccc2)c(-c2ccccc2)c(-c2ccc(F)cc2)n1CC[C@@H](O)C[C@@H](O)CC(=O)O [Atorvastatin]
- growth yield (40 h): 106%
- growth yield (72 h): 85.1 ± 10%

Structure (SMILES): CC(=O)OCC(=O)[C@@]1(O)CC[C@H]2[C@@H]3CCC4=CC(=O)CC[C@]4(C)[C@H]3[C@@H](O)C[C@@]21C [Cortisol acetate]
- growth yield (40 h): 98.2 ± 4.8%
- growth yield (72 h): 96.2 ± 2%

Structure (SMILES): CCN[C@H]1CN(CCCOC)S(=O)(=O)c2sc(S(N)(=O)=O)cc21 [Brinzolamide]
- growth yield (40 h): 96.1 ± 2.4%
- growth yield (72 h): 98.5 ± 4.3%

Structure (SMILES): CC(=O)OCC(=O)NCCCOc1cccc(CN2CCCCC2)c1 [Roxatidine Acetate hydrochloride]
- growth yield (40 h): 100%
- growth yield (72 h): 102%

Structure (SMILES): CCn1cc(C(=O)O)c(=O)c2cc(F)c(N3CCNCC3)nc21 [Enoxacin]
- growth yield (40 h): 95.6 ± 3.5%
- growth yield (72 h): 97.3 ± 3.4%

Structure (SMILES): CCCc1ncc(C[n+]2ccccc2C)c(N)n1 [Amprolium hydrochloride]
- growth yield (40 h): 97.1 ± 4%
- growth yield (72 h): 98.2 ± 2.7%

Structure (SMILES): Oc1ccc(C2CNCCc3c2cc(O)c(O)c3Cl)cc1 (stereo not drawn) [Fenoldopam]
- growth yield (40 h): 100 ± 2.7%
- growth yield (72 h): 97 ± 1.6%

Structure (SMILES): CC(C(=O)O)c1cccc(Oc2ccccc2)c1 (stereo not drawn) [Fenoprofen calcium salt dihydrate]
- growth yield (40 h): 97.5 ± 10%
- growth yield (72 h): 97.7 ± 13%

Structure (SMILES): CS(=O)(=O)c1ccc([C@@H](O)[C@@H](CF)NC(=O)C(Cl)Cl)cc1 [Florfenicol]
- growth yield (40 h): 92.3 ± 4.3%
- growth yield (72 h): 92.61 ± 0.52%

Structure (SMILES): CCN(CC)CCCC(C)Nc1ccnc2cc(Cl)ccc12 (stereo not drawn) [Chloroquine diphosphate]
- growth yield (40 h): 99.75 ± 0.64%
- growth yield (72 h): 103 ± 0.21%

Structure (SMILES): Nc1ccc(S(=O)(=O)NC(=O)c2ccccc2)cc1 [Sulfabenzamide]
- growth yield (40 h): 95.6 ± 2.2%
- growth yield (72 h): 95.8 ± 1.1%

Structure (SMILES): C=C(CC)C(=O)c1ccc(OCC(=O)O)c(Cl)c1Cl [Ethacrynic acid]
- growth yield (40 h): 84.98 ± 0.16%
- growth yield (72 h): 85 ± 1.5%

Structure (SMILES): O=C1NCCN1c1ncc([N+](=O)[O-])s1 [Niridazole]
- growth yield (40 h): 95%
- growth yield (72 h): 93.8%

Structure (SMILES): C1N2CN3CN1CN(C2)C3 [Methenamine]
- growth yield (40 h): 102.61 ± 2.2e-14%
- growth yield (72 h): 100.2 ± 0.52%

Structure (SMILES): CCCCCN(C)CCC(O)(P(=O)(O)O)P(=O)(O)O [Ibandronate sodium]
- growth yield (40 h): 102.9 ± 0.64%
- growth yield (72 h): 105 ± 1.4%

Structure (SMILES): CNc1ncnc2c1ncn2[C@@H]1O[C@H](CO)[C@@H](O)[C@H]1O [N6-methyladenosine]
- growth yield (40 h): 103 ± 4%
- growth yield (72 h): 104 ± 1.8%

Structure (SMILES): OCC(O)CN1CCN(c2ccccc2)CC1 (racemic) [Dropropizine (R,S)]
- growth yield (40 h): 101 ± 1.6%
- growth yield (72 h): 101.7 ± 0.63%

Structure (SMILES): CC(C)(C)C(=O)OCOC(=O)[C@@H]1N2C(=O)[C@@H](/N=C/N3CCCCCC3)[C@H]2SC1(C)C [Pivmecillinam hydrochloride]
- growth yield (40 h): 101 ± 2.4%
- growth yield (72 h): 96.07 ± 0.21%

Structure (SMILES): C[C@@H](O)[C@H]1C(=O)N2C(C(=O)O)=C(SCCNC=N)C[C@H]12 [Imipenem]
- growth yield (40 h): 103 ± 2.2%
- growth yield (72 h): 104 ± 2.2%

Structure (SMILES): c1ccc2c(c1)CCCC2C1=NCCN1 (stereo not drawn) [Tetrahydrozoline hydrochloride]
- growth yield (40 h): 96.4 ± 3.6%
- growth yield (72 h): 96.3 ± 2.3%

Structure (SMILES): COc1ccc(CC(C)NCC(O)c2ccc(O)c(NC=O)c2)cc1 (stereo not drawn) [Formoterol fumarate]
- growth yield (40 h): 96.3 ± 1.6%
- growth yield (72 h): 93.34 ± 0.84%

Structure (SMILES): CCOC(=O)N1CCC(=C2c3ccc(Cl)cc3CCc3cccnc32)CC1 [Loratadine]
- growth yield (40 h): 19.2 ± 12%
- growth yield (72 h): 73.6%

Structure (SMILES): CC(=O)[C@@]12O[C@](C)(c3ccccc3)O[C@@H]1C[C@H]1[C@@H]3CCC4=CC(=O)CC[C@]4(C)[C@H]3CC[C@@]12C [Algestone acetophenide]
- growth yield (40 h): 111 ± 8.9%
- growth yield (72 h): 108 ± 6.3%

Structure (SMILES): COCCCC/C(=N\OCCN)c1ccc(C(F)(F)F)cc1 [Fluvoxamine maleate]
- growth yield (40 h): 103 ± 2.9%
- growth yield (72 h): 100 ± 1.1%

Structure (SMILES): C[C@]12CCC(=O)C=C1CC[C@@H]1[C@@H]2C(=O)C[C@@]2(C)[C@H]1CC[C@]2(O)C(=O)CO [Cortisone]
- growth yield (40 h): 98.48 ± 0.95%
- growth yield (72 h): 103.3 ± 0.1%

Structure (SMILES): COC(=O)[C@H](c1ccccc1Cl)N1CCc2sccc2C1 [Clopidogrel]
- growth yield (40 h): 76.9 ± 1.6%
- growth yield (72 h): 82 ± 1.1%

Structure (SMILES): C[C@H](N[C@@H](CCc1ccccc1)C(=O)O)C(=O)N1CCC[C@H]1C(=O)O [Enalaprilat dihydrate]
- growth yield (40 h): 100 ± 2.1%
- growth yield (72 h): 100 ± 2%
